From PubChem BioAssay AID651820 (National Center for Advancing Translational Sciences (NCATS), 2012)
“And” between values parts separate entries of the source, which are not always exact repeats. Identical values can stand only once. About 12,000 (3.5%) of roughly 340,000 compounds were called active. Inconclusive results, whose numbers are uncertain, are shown with a selection of clear calls. The call rests on the fitted dose curve; in most records, active means well fitted inhibition curve with a large enough effect; inconclusive means small, poorly fitted or top-dose-only effect, or another doubt; inactive means no such curve, though single readings can be large or run the other way. Potencies of inconclusive entries are doubtful fits and often do not repeat.
On the % scale 0 is the no-effect control and ±100 the full control effect; potency means the concentration at half of the fitted maximal effect; tags describe the fitted curve by direction and shape.

Test: qHTS Assay for Inhibitors of Hepatitis C Virus (HCV)
Settings: Huh7.5.1 HCVcc-Cre (HCVcc is cell-culture hepatitis C virus) infection, luciferase reporter, 44 h; activity change, negative = inhibition: at 41.8 µM (top of the series) unless noted
Summary of the method: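 Cells (1,000/well) were plated 4 h before compound, then infected with HCVcc-Cre virus (~0.5 moi). After 44 h further culture, infection was read as luciferase luminescence following a 15 min substrate incubation at room temperature.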
For `CCCCn1c(N)c(N(CC(C)C)C(=O)CCNC(=O)c2ccc(Br)cc2)c(=O)[nH]c1=O`, the “activity change, negative = inhibition” value was inactive: 7.06%.
With `CN(CC(=O)NCCc1ccc(Cl)cc1)S(=O)(=O)c1ccc2c(c1)c(=O)n(C)c(=O)n2C` the Potency was inconclusive: 12.6 µM [inhibitor, single point].
With `CC(=O)OCc1c(C(F)(F)F)nn(C)c1Oc1ccccc1` the “activity change, negative = inhibition” value was inactive: -1.23%.
For `COc1cc(C(=O)NCCc2nc3ccccc3n2C)cc(OC)c1OC`, the Potency was inconclusive: 1.78 µM [inhibitor, full curve].
For `Cc1nn(Cc2cccc(C(=O)N3CCCC(C)C3)c2)c(C)c1[N+](=O)[O-]` (stereo not drawn), the Potency was inconclusive: 10 µM [inhibitor, partial curve].
With `COc1ccc(CC(=O)Nc2cc(C)on2)cc1` the “activity change, negative = inhibition” value was inactive: 7.17%.
With `CCOC(=O)c1cc(-c2ccc(OC)cc2)n(CCC(=O)NC2CCN(Cc3ccccc3)CC2)c1C` the Potency was inconclusive: 10 µM [inhibitor, partial curve].
With `CCC1(CC)NC(=O)N(CC(=O)OCC(=O)Nc2cc(OC)ccc2OC)C1=O` the “activity change, negative = inhibition” value was inactive: -5.84%.
With `CNS(=O)(=O)c1ccc(C(=O)NCC(=O)NCCC(c2ccccc2)c2ccccc2)cc1` the “activity change, negative = inhibition” value was inactive: 11.6%.
In the case of `CCCCCCc1cc2cc(C(=O)OCC)c(=O)oc2cc1O`, the “activity change, negative = inhibition” value is reported as inactive: -8.33%.
For `Cc1c(C(=O)NCCSc2ccc(Cl)cc2)cccc1[N+](=O)[O-]`, the Potency was inconclusive: 17.8 µM [inhibitor, partial curve, poor fit].
For `Cc1ccc(S(=O)(=O)c2ccc(Oc3ccccc3)cc2)cc1`, the “activity change, negative = inhibition” value was inactive: -27.1%.
In the case of `COc1ccc2c(c1)c(C(=O)CN1CCN(C)CC1)c(C)n2Cc1ccccc1`, the “activity change, negative = inhibition” value is reported as inactive: -27.3%.
With `CCCOc1ccc(Cc2c(Cl)nc(SC)nc2N(C)C)cc1` the Potency was inconclusive: 12.6 µM [inhibitor, partial curve].
With `CC(=O)N(c1nnc(-c2ccc(C)cc2)s1)C1CCCC1` the “activity change, negative = inhibition” value was inactive: -6.94%.
With `COC(=O)c1[nH]c2ccccc2c1NC(=O)CN1CCCc2ccccc21` the Potency was inconclusive: 11.2 µM [inhibitor, single point].
With `O=C(CNC(=O)c1cccs1)c1ccc([N+](=O)[O-])cc1` the “activity change, negative = inhibition” value was inactive: 8.92%.
For `COCC(=O)N1CCC(Oc2ccc(C(=O)N3C[C@@H]4CCC[C@H]3C4)cc2)CC1`, the “activity change, negative = inhibition” value was inactive: 9.61%.
With `COC(=O)c1ccccc1NC(=O)Cn1c(=O)n(CCC(=O)NC2CCN(Cc3ccccc3)CC2)c(=O)c2ccccc21` the “activity change, negative = inhibition” value was inactive: -9.62%.
With `Cc1ccc(S(=O)(=O)N/N=C\c2cn(CC(N)=O)c3ccccc23)cc1` the “activity change, negative = inhibition” value was inactive: 6.73%.
With `COC(=O)c1ccc(CNC(=O)COC(=O)c2ccc(N(C)C)cc2)cc1` the “activity change, negative = inhibition” value was inactive: -29.2%.
For `CCCc1nc(Nc2nc3ccccc3o2)nc(C)c1C(=O)OCC`, the Potency was inconclusive: 2.51 µM [inhibitor, full curve].
For `CCCn1c(NC(=O)CCNC(=O)c2ccccc2Cl)nc2ccccc21`, the Potency was inconclusive: 12.6 µM [inhibitor, single point].
For `CCCn1cc2c(c1-c1cccc(C)c1)c(=O)n(C)c(=O)n2C`, the Potency was inconclusive: 5.62 µM [inhibitor, single point].
In the case of `Cc1cccc(NC(=O)c2nc[nH]c2C(=O)NCc2ccccc2)c1`, the Potency is reported as inconclusive: 31.6 µM [inhibitor, single point].
With `C=CCN(CC=C)S(=O)(=O)c1ccc(C(=O)Nc2nnc(COC)o2)cc1` the Potency was inconclusive: 31.6 µM [inhibitor, single point].
For `Nc1[nH]nc2nc(N3CCOCC3)nc(-c3ccccc3)c12`, the Potency was inconclusive: 5.01 µM [inhibitor, single point].
For `CC(C)CCn1c(SCC(=O)N2CC(=O)Nc3ccccc32)nc2scc(-c3cccs3)c2c1=O`, the Potency was inconclusive: 2 µM [inhibitor, partial curve].
In the case of `COc1cc(C(=O)NCCNc2nc3ccc(C)cc3cc2C#N)cc(OC)c1OC`, the “activity change, negative = inhibition” value is reported as inactive: -22.8%.
For `COc1cccc(Nc2nc(-c3ccc4c(c3)OCCO4)cs2)c1`, the Potency was inconclusive: 7.94 µM [inhibitor, partial curve, poor fit].
For `Cc1nnc2c3ccccc3c(-c3cccs3)nn12`, the Potency was inconclusive: 31.6 µM [inhibitor, single point].
In the case of `CCCCCCCn1c(NC(=O)CC)nc2ccccc21`, the “activity change, negative = inhibition” value is reported as inactive: -35.1%.
In the case of `Cc1nc(-c2cc(-c3nc(-c4ccc(C(C)(C)C)cc4)no3)no2)cs1`, the Potency is reported as inconclusive: 11.2 µM [inhibitor, partial curve, poor fit].
For `Cc1cc2cc(CCNC(=O)c3ccc(S(=O)(=O)N4CCCC4)cc3)c(=O)[nH]c2cc1C`, the Potency was inconclusive: 14.1 µM [inhibitor, single point].
For `COCCCNC(=O)c1ccc(S(=O)(=O)c2ccc(C)cc2)c(NC(C)=O)c1`, the “activity change, negative = inhibition” value was inactive: 5.4%.
With `Cc1[nH]c2ccccc2c1C(=O)COC(=O)C1CCC1` the “activity change, negative = inhibition” value was inactive: 20.5%.
With `COc1cccc(-c2cc(C(F)(F)F)n3ncc(C(=O)NCC4CCCO4)c3n2)c1` (stereo not drawn) the Potency was inconclusive: 11.2 µM [inhibitor, single point].
For `O=C(Nc1nc(-c2ccc(F)cc2)cs1)c1ccc(N2C(=O)CCC2=O)cc1`, the Potency was inconclusive: 10 µM [inhibitor, partial curve].
With `O=C(COC(=O)C1CC(O)CN1S(=O)(=O)c1ccc(Cl)cc1)c1ccccc1` (stereo not drawn) the “activity change, negative = inhibition” value was inactive: 3%.
For `Cc1cc(N2CCOCC2)nc2ccc(NC(=O)CCC(=O)N3CCN(c4cccc(C(F)(F)F)c4)CC3)cc12`, the Potency was active: 11.2 µM.
With `CCNc1nc(NCC)n2c(SC(C(=O)Nc3cc(C)ccc3OC)c3ccccc3)nnc2n1` (stereo not drawn) the Potency was inconclusive: 25.1 µM [inhibitor, partial curve].
With `S=C(NCc1cccnc1)Nc1ccc(Oc2ccccc2)cc1` the Potency was inconclusive: 31.6 µM [inhibitor, single point].
For `C/C(=N\Nc1ccc([N+](=O)[O-])cc1)c1cc2ccccc2o1`, the Potency was inconclusive: 22.4 µM [inhibitor, single point].
For `COC(=O)c1c(NC(=O)CSc2nccn2C)sc(C)c1C`, the Potency was inconclusive: 31.6 µM [inhibitor, single point].
In the case of `CCOc1ccc(Cl)cc1/C=N/NC(N)=O`, the Potency is reported as active: 14.1 µM.
In the case of `CCN1CCN(S(=O)(=O)c2ccc(Cl)c(C(=O)N(C)Cc3ccc(C(C)(C)C)cc3)c2)CC1`, the Potency is reported as inconclusive: 14.1 µM [inhibitor, single point].
For `Cc1cc(C)cc(N(CC(=O)NCc2ccco2)C(=O)c2snc(C(N)=O)c2N)c1`, the Potency was inconclusive: 0.316 µM [inhibitor, full curve, poor fit].
With `Oc1[nH]c2ccccc2c1C=Nc1ccc2c(c1)OCO2` the Potency was inconclusive: 31.6 µM [inhibitor, single point].
With `CCOc1ccc(CCNC(=O)COC(=O)c2ccc(OC)c(OC)c2OC)cc1OCC` the Potency was inconclusive: 6.31 µM [inhibitor, partial curve].
With `N#C/C(=C\c1c[nH]c2ccccc12)C(=O)NC1CC1` the Potency was inconclusive: 0.562 µM [inhibitor, full curve, poor fit].
With `CCOC(=O)N1CCC(NC(=O)C2CCN(C(=O)c3cc4sccc4n3CC)CC2)CC1` the “activity change, negative = inhibition” value was inactive: -15.3%.
In the case of `NS(=O)(=O)c1ccc(NC(=S)N2CCN(S(=O)(=O)c3ccc(F)cc3)CC2)cc1`, the “activity change, negative = inhibition” value is reported as inactive: 0.414%.
In the case of `Cc1cc(OCCCCn2ccnc2)cc(C)c1Cl`, the Potency is reported as inconclusive: 31.6 µM [inhibitor, single point].
In the case of `CCC(=O)N1CCc2cc(Br)cc(S(=O)(=O)NCC3CCCN3CC)c21` (stereo not drawn), the Potency is reported as “inactive and inconclusive: 7.94 µM [inhibitor, partial curve]”.
With `CCOC(=O)C1=C(C)C/C(=N\NC(=O)c2ccccc2O)CC1` the “activity change, negative = inhibition” value was inactive: 3.23%.
With `CC(C)NC(=O)CN1CCN(C(=O)CCl)CC1` the “activity change, negative = inhibition” value was inactive: 19.2%.
With `CCCCOC(=O)c1sc2nc(C)cc(C)c2c1N` the Potency was inconclusive: 31.6 µM [inhibitor, single point].
For `COc1cc(NC(=O)c2cc(-c3ccccc3)on2)cc(OC)c1OC`, the Potency was inconclusive: 11.2 µM [inhibitor, partial curve].
In the case of `CC(C)CC(=O)/C=C/n1c(=S)oc2ccccc21`, the Potency is reported as active: 14.1 µM.
In the case of `CCOC(=O)Cc1csc(NC(=O)c2cc(C)c(C)s2)n1`, the Potency is reported as inconclusive: 11.2 µM [inhibitor, single point].
In the case of `Cc1ccc(N=Nc2c(O)ccc3n[nH]nc23)cc1`, the Potency is reported as inconclusive: 12.6 µM [inhibitor, single point].
With `CCC(=O)N1N=C(c2c(-c3ccccc3)c3cc(Cl)ccc3[nH]c2=O)CC1c1ccco1` (stereo not drawn) the Potency was inconclusive: 10 µM [inhibitor, single point].
In the case of `CCCN(CC(=O)Nc1ccccc1C)C(=O)CCl`, the Potency is reported as active: 7.08 µM.
For `COc1ccc2c(c1)C13CCCC[C@@H]1C(C2)N(C)CC3` (stereo partly drawn), the Potency was inconclusive: 7.94 µM [inhibitor, partial curve].
With `COc1ccccc1C1CCN(c2ccc([N+](=O)[O-])c(OC)c2)CC1` the activity change, negative = inhibition was inconclusive: -59.6% [inhibitor].
In the case of `COc1ccc(Cn2c(O)c(/C=N/NC(=O)c3ccccc3O)c(=O)[nH]c2=O)cc1`, the “activity change, negative = inhibition” value is reported as inactive: 7.77%.
With `COc1ccc(CNC(=O)Nc2cc(C)cc(C)c2)cc1` the “activity change, negative = inhibition” value was inactive: -4.27%.
In the case of `c1cncc(C(c2nnnn2C2CCCC2)N2CCCC2)c1` (stereo not drawn), the “activity change, negative = inhibition” value is reported as inactive: 5.35%.
With `COc1ccc(Cn2nnnc2CN2CCC(O)(c3ccc(F)cc3)CC2)cc1` the “activity change, negative = inhibition” value was inactive: 27.8%.
With `Brc1ccc(-c2nc3ncccn3c2NC2CCCCC2)o1` the “activity change, negative = inhibition” value was inactive: -14.8%.
In the case of `COc1ccc(CCN2C(=O)C3CC=C(C)CC3C2=O)cc1OC` (stereo not drawn), the Potency is reported as inconclusive: 5.01 µM [inhibitor, single point].
With `COc1ccc(-n2c(SC(CN3CCCCC3)CN3CCCC3=O)nc3ccccc3c2=O)cc1` (stereo not drawn) the Potency was inconclusive: 31.6 µM [inhibitor, single point].
In the case of `COc1ccc(OC)c(S(=O)(=O)Nc2ccc(Oc3ccccc3)cc2)c1`, the Potency is reported as inconclusive: 31.6 µM [inhibitor, single point].
